According to the supplement of paper PMC7125110:
± gives the standard error. This sample is rich in variants without activity.

B1: glmS ribozyme (parent)
chain: AUAAAAGCGCCAGAACUACAGAAAUGUAGUUGACGAGGAGGAGGUUUAUCGAAUUUUCGGCGGAUGCCUCCAAA

Variants of: B1
Test: self-cleavage kobs at 160 uM GlcN6P; higher = faster cleavage; RNA array
Conditions: with glucosamine-6-phosphate
Procedure, shortened: (§1)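 Glucosamine-6-phosphate, from 40 μM to 10 mM in HEPES/KCl/Mg(OAc)2 buffer, was flowed over sequenced MiSeq chips carrying barcoded ribozyme variants transcribed in situ by E. coli RNA polymerase. A hybridised Cy3 probe tracked the variants at 37 °C as tiles were imaged over ~14 h. kobs, kcat and KM were obtained by fitting normalised per-tile medians to exponential decays and then applying weighted Michaelis–Menten fits across concentrations.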

| Variant | self-cleavage kobs at 160 uM GlcN6P [s⁻¹] |
| --- | --- |
| A33G G40U G44U A52U | < 1e-05 |
| A33G U47G A48C G51C | < 1e-05 |
| A33U A53G C70U | < 1e-05 |
| A33U G38U C70U | < 1e-05 |
| C34A G37A G41A G60A | < 1e-05 |
| C34A G41A C71U | < 1e-05 |
| C34A G44A G62U | < 1e-05 |
| C34G G37C A53G | < 1e-05 |
| C34U C50G C68A | 9.29e-05 ± 2.9e-05 |
| C34U G35C | < 1e-05 |
| C34U G63A | < 1e-05 |
| C34U U49G A52U | < 1e-05 |
| G35A A36U C68A A72C | < 1e-05 |
| G35A A39U | < 1e-05 |
| G35A C58G | < 1e-05 |
| G35A C68U C70G | < 1e-05 |
| G35A G37C G63A | < 1e-05 |
| G35A U45G U65A | < 1e-05 |
| G35A U49G G51C | < 1e-05 |
| G35C A42G U65G | < 1e-05 |
| G35C U57C | < 1e-05 |
| G35C U57G G59C | < 1e-05 |
| G35U A48G U55A G63A C68U | < 1e-05 |
| G35U A48G U57A C70G | < 1e-05 |
| G35U C68G U69C | < 1e-05 |

| Variant | self-cleavage kobs at 160 uM GlcN6P [s⁻¹] |
| --- | --- |
| G35U G41A G60U | < 1e-05 |
| A36C C50G G51A | < 1e-05 |
| A36C U47A | < 1e-05 |
| A36C U49G A64U | < 1e-05 |
| A36G G38A A52U | < 1e-05 |
| A36G G38A C67A | < 1e-05 |
| A36G G38C A42U G62A C67U C68A U69G | < 1e-05 |
| A36U A48U C58U | < 1e-05 |
| G37A G38U | < 1e-05 |
| G37A G51U | < 1e-05 |
| G37A G59A G62A | < 1e-05 |
| G37A U47A G59U U69C | < 1e-05 |
| G37C A53U C70U | < 1e-05 |
| G37C C71G | < 1e-05 |
| G37C G41A G44U | < 1e-05 |
| G37C G62A U65G | < 1e-05 |
| G38A A53U A64U | < 1e-05 |
| G38A A64G | < 1e-05 |
| G38C G41A G51U | < 1e-05 |
| G38C G41C U45A | < 1e-05 |
| G38C G44U C67G | < 1e-05 |
| G38C G51U U57C | < 1e-05 |
| G38U A39G G59A | < 1e-05 |
| G38U A52G | < 1e-05 |
| G38U C50U A53U G59C | < 1e-05 |

| Variant | self-cleavage kobs at 160 uM GlcN6P [s⁻¹] |
| --- | --- |
| G38U U56C U65A | < 1e-05 |
| A39C G44A C70G | < 1e-05 |
| A39C U57G C61A U69C | < 1e-05 |
| A39G C58U G60U | < 1e-05 |
| A39G G41A G59U G60U | < 1e-05 |
| A39G G43C C50A | < 1e-05 |
| A39G G51C | < 1e-05 |
| A39G G51U G59U | < 1e-05 |
| A39U G41C A52G | < 1e-05 |
| G40A A48G C50G | < 1e-05 |
| G40A A64U C68A | < 1e-05 |
| G40A G62A | < 1e-05 |
| G40A U55C C67A | < 1e-05 |
| G40C A48G | < 1e-05 |
| G40U A42C G62C | < 1e-05 |
| G40U C61A C70U | < 1e-05 |
| G40U G41C U56A | < 1e-05 |
| G41A A42U G62U | < 1e-05 |
| G41C A52C C68U | < 1e-05 |
| G41C A52G G63U | < 1e-05 |
| G41C C50A A53G | < 1e-05 |
| G41C G51C A64C | < 1e-05 |
| G41C U54G C67U | < 1e-05 |
| G41U A48U | < 1e-05 |
| G41U A52U U57C | < 1e-05 |

| Variant | self-cleavage kobs at 160 uM GlcN6P [s⁻¹] |
| --- | --- |
| G41U G44U C58U G59A G66U C67G | < 1e-05 |
| A42C A52C C67G | < 1e-05 |
| A42C A52G | < 1e-05 |
| A42C G43C C68A C71A | < 1e-05 |
| A42C G51U A53C C71G | < 1e-05 |
| A42G C58U | < 1e-05 |
| A42U A52G | < 1e-05 |
| A42U C50U C67U | < 1e-05 |
| A42U G44C G63U | < 1e-05 |
| G43C A52U C61A | < 1e-05 |
| G43C U55A A64U | < 1e-05 |
| G43U A48U U49A | < 1e-05 |
| G43U A53U | < 1e-05 |
| G44A A48G G51U G59A | < 1e-05 |
| G44A G51U | < 1e-05 |
| G44A U47G C58A | < 1e-05 |
| G44C A53U | < 1e-05 |
| G44C U46C | < 1e-05 |
| G44C U54G | < 1e-05 |
| U45A C68G | < 1e-05 |
| U45C U57A | < 1e-05 |
| U46A G62C C67U | < 1e-05 |
| U46C A48U | < 1e-05 |
| U46G U47G A48G C71A | < 1e-05 |
| U47C C61U G63C C70U | < 1e-05 |

| Variant | self-cleavage kobs at 160 uM GlcN6P [s⁻¹] |
| --- | --- |
| U47G G62C | < 1e-05 |
| A48G A52C G59C | < 1e-05 |
| A48G C67A | < 1e-05 |
| A48G G62A U65G | < 1e-05 |
| A48G G66U | < 1e-05 |
| U49G G62U | < 1e-05 |
| C50A A64C | < 1e-05 |
| C50A A64G | < 1e-05 |
| C50G A53U | 0.00155 ± 0.00063 |
| C50G G66A | 5.66e-05 ± 2.2e-05 |
| C50G U54C | 5.92e-05 ± 2.5e-05 |
| G51U A52U G62A G63C A64G | < 1e-05 |
| G51U G62A G63C | < 1e-05 |
| G51U U55G C58G C61G | 3.64e-05 ± 1.6e-05 |
| G51U U57A G66A | < 1e-05 |
| A52C A53G G62C | < 1e-05 |
| A53U C61G G66U | < 1e-05 |
| A53U G63A | < 1e-05 |
| U54C U57G | < 1e-05 |
| U54G G60A | < 1e-05 |
| U55C C68U | < 1e-05 |

Variants of: B1
Test: self-cleavage kobs at 10000 uM GlcN6P; higher = faster cleavage; RNA array
Conditions: with glucosamine-6-phosphate
Procedure, shortened: as §1

| Variant | self-cleavage kobs at 10000 uM GlcN6P [s⁻¹] |
| --- | --- |
| C34A G37A G41A G60A | < 1e-05 |
| C34U G35C | < 1e-05 |
| C34U G63A | < 1e-05 |
| C34U U49G A52U | < 1e-05 |
| G35A A39U | < 1e-05 |
| G35C U57C | < 1e-05 |
| G37C C71G | < 1e-05 |
| G38C G44U C67G | < 1e-05 |
| G38U U56C U65A | < 1e-05 |
| A39G G51C | < 1e-05 |
| G40A G62A | < 1e-05 |
| A42U A52G | 1.62e-05 ± 7.9e-06 |
| G43C A52U C61A | < 1e-05 |
| G44A G51U | < 1e-05 |
| U46C A48U | 6.9e-05 ± 9e-06 |
| U47G G62C | < 1e-05 |
| A48G C67A | 3.47e-05 ± 1.2e-05 |
| A48G G66U | < 1e-05 |
| C50A A64C | < 1e-05 |
| G51U U57A G66A | < 1e-05 |
| A52C A53G G62C | < 1e-05 |
| A53U G63A | < 1e-05 |

Variants of: B1
Test: self-cleavage kobs at 2500 uM GlcN6P; higher = faster cleavage; RNA array
Conditions: with glucosamine-6-phosphate
Procedure, shortened: as §1

| Variant | self-cleavage kobs at 2500 uM GlcN6P [s⁻¹] |
| --- | --- |
| C34A G44A G62U | < 1e-05 |
| C34U C50G C68A | 9.73e-05 ± 2.8e-05 |
| C34U G35C | < 1e-05 |
| C34U G63A | < 1e-05 |
| C34U U49G A52U | < 1e-05 |
| G35A C58G | < 1e-05 |
| G35A G37C G63A | < 1e-05 |
| G35A U45G U65A | < 1e-05 |
| G35A U49G G51C | < 1e-05 |
| G35C A42G U65G | < 1e-05 |
| G35C U57C | < 1e-05 |
| G35U A48G U57A C70G | < 1e-05 |
| G35U C68G U69C | < 1e-05 |
| G35U G41A G60U | < 1e-05 |
| A36C U47A | < 1e-05 |
| G37A G51U | < 1e-05 |
| G38C G41A G51U | < 1e-05 |
| G38C G41C U45A | < 1e-05 |
| G38C G51U U57C | < 1e-05 |
| G38U A39G G59A | < 1e-05 |
| G38U A52G | < 1e-05 |
| G38U C50U A53U G59C | < 1e-05 |
| G38U U56C U65A | < 1e-05 |

| Variant | self-cleavage kobs at 2500 uM GlcN6P [s⁻¹] |
| --- | --- |
| A39C U57G C61A U69C | < 1e-05 |
| A39G C58U G60U | < 1e-05 |
| A39G G43C C50A | < 1e-05 |
| A39G G51C | < 1e-05 |
| A39U G41C A52G | < 1e-05 |
| G40A A48G C50G | < 1e-05 |
| G40A A64U C68A | < 1e-05 |
| G40A G62A | < 1e-05 |
| G40U C61A C70U | < 1e-05 |
| G41U G44U C58U G59A G66U C67G | < 1e-05 |
| A42C A52G | < 1e-05 |
| A42C G43C C68A C71A | < 1e-05 |
| G43C A52U C61A | < 1e-05 |
| G43U A48U U49A | < 1e-05 |
| G44A A48G G51U G59A | < 1e-05 |
| U46A G62C C67U | < 1e-05 |
| U46C A48U | 6.44e-05 ± 1.3e-05 |
| U46G U47G A48G C71A | < 1e-05 |
| U47G G62C | < 1e-05 |
| A48G A52C G59C | < 1e-05 |
| U49G G62U | < 1e-05 |
| C50G U54C | 5.87e-05 ± 1.8e-05 |
| G51U U57A G66A | < 1e-05 |
